# In publication PMC6212790:
# The list shows a part of the results. At the low end of the ranking, values are background and their order means little.
# Target: T1, GST-Rok (full length) (UniProt O34857)
# T1 sequence: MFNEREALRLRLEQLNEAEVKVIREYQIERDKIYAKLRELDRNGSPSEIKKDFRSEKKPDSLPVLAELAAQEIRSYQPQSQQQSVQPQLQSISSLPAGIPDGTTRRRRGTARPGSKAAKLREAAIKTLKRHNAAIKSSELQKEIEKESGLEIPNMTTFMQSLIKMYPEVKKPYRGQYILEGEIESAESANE
# Assay: protein binding microarray;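 note: rank score from −0.5 (least bound) to 0.5 (best bound)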
# Conditions: Rok is a gene silencer of Bacillus subtilis; high values mean tight binding; most listed sequences are background and not binding sites; double strand, one strand shown
row,Sequence,binding signal [E-score]
1,CACAGAAC,-0.0713
2,GGCGCCGA,-0.153
3,ATCCACGC,-0.0952
4,CAGTCCAA,-0.0763
5,GAGGAAGA,-0.299
6,GGTATCTA,0.334
7,ATGATCGG,-0.0463
8,ACCAGCTG,0.0468
9,AAGTGGAA,-0.0172
10,TAAGCTGA,-0.0981
11,CGACATGA,0.14
12,AGCTGATA,0.122
13,GGTAAGGA,-0.0918
14,CGATACCG,0.0685
15,CACAGCTC,-0.139
16,GCGGACTA,-0.0642
17,AATGCGCC,-0.0617
18,TGACTCCA,-0.158
19,CTCCGGAA,-0.0523
20,CTGCAGGC,-0.206
21,GATCTTCA,-0.0726
22,CAAGGAGC,-0.347
23,TAGTATGA,0.141
24,CTCACAGC,-0.195

row,Sequence,binding signal [E-score]
1,CCGAAGGA,-0.263
2,ACTTTAAT,0.195
3,CCCGGGTA,-0.221
4,GAAGGGGA,-0.309
5,ACGTGTTA,-0.0308
6,CATTCAAA,0.00724
7,AAGGTTTG,-0.0626
8,TACAACTA,0.368
9,ATATGAAT,0.106
10,CGTACGAA,0.0484
11,CACAAGAC,-0.175
12,TGATCCAA,-0.104
13,GAAGCATC,-0.0913
14,ATATTAAT,0.345
15,AAGTCTCC,-0.219
16,AACATCGA,0.129
17,GTTACAGA,0.216
18,ACACAAAC,0.111
19,CTCTTCAA,0.0324
20,CATGCTAA,0.132
21,AAGCTTGT,0.0413
22,AGGGATAA,0.0427
23,ACGAATCG,-0.0917
24,AAAATGTA,0.287

row,Sequence,binding signal [E-score]
1,AATCGCTA,0.139
2,CAGTGTGC,-0.0719
3,CGGCTCTA,-0.155
4,ACTGACAT,0.0422
5,AGACTCCT,-0.104
6,AATTCATG,0.197
7,CCACACCG,-0.0167
8,ACTCGGCA,-0.0775
9,GCCGGCAC,-0.335
10,AATTTGGG,-0.192
11,GGGACCGA,-0.345
12,CCCGGACC,-0.283
13,GGGAAAAC,0.131
14,ACTACACT,0.242
15,CAACCCTA,-0.129
16,GCGGCCTA,-0.233
17,GCGCTTGA,-0.165
18,GACCCAGC,-0.253
19,ATAGCGTA,0.222
20,ACCCCATG,-0.268
21,CATATGAC,0.0572
22,CCACTGTA,0.158
23,CCAACCAC,-0.206
24,AACTCGCG,-0.133

row,Sequence,binding signal [E-score]
1,AATGGGCT,-0.169
2,GCTATGAC,0.0534
3,CAATCACA,0.125
4,TGTGGCAA,-0.0171
5,ACCCTGGC,-0.153
6,GACACAGA,-0.168
7,ACCATGGG,-0.289
8,CCGCTCGA,-0.203
9,ATTCGGCC,-0.176
10,GAGAGTCC,-0.151
11,CCCCTGAC,-0.423
12,CACTGGCG,-0.113
13,AGAGCAAG,-0.229
14,CCTAGGGA,-0.209
15,CAAGAAAG,-0.0888
16,AAGTGCTA,0.0947
17,TGGGTAAA,0.248
18,CGTTTGTA,0.138
19,GTGAACGA,-0.173
20,AGAGCAAC,-0.205
21,GCTTACCA,-0.105
22,AGCCAGAT,-0.0289
